Measured values: PMC4336329 (PLoS ONE, 2015)
The whole screen tested about 310,000 compounds, of which about 2,200 (0.71%) showed an effect of 50% or more. The effect is printed as a negative number. The list shows a part of the results.

Target: human ether-à-go-go-related gene (hERG) potassium channel (human, UniProt Q12809)
Assay: primary screen, population patch clamp on CHO cells stably expressing hERG

Chain of human ether-à-go-go-related gene (hERG) potassium channel (Q12809 whole entry, looked up): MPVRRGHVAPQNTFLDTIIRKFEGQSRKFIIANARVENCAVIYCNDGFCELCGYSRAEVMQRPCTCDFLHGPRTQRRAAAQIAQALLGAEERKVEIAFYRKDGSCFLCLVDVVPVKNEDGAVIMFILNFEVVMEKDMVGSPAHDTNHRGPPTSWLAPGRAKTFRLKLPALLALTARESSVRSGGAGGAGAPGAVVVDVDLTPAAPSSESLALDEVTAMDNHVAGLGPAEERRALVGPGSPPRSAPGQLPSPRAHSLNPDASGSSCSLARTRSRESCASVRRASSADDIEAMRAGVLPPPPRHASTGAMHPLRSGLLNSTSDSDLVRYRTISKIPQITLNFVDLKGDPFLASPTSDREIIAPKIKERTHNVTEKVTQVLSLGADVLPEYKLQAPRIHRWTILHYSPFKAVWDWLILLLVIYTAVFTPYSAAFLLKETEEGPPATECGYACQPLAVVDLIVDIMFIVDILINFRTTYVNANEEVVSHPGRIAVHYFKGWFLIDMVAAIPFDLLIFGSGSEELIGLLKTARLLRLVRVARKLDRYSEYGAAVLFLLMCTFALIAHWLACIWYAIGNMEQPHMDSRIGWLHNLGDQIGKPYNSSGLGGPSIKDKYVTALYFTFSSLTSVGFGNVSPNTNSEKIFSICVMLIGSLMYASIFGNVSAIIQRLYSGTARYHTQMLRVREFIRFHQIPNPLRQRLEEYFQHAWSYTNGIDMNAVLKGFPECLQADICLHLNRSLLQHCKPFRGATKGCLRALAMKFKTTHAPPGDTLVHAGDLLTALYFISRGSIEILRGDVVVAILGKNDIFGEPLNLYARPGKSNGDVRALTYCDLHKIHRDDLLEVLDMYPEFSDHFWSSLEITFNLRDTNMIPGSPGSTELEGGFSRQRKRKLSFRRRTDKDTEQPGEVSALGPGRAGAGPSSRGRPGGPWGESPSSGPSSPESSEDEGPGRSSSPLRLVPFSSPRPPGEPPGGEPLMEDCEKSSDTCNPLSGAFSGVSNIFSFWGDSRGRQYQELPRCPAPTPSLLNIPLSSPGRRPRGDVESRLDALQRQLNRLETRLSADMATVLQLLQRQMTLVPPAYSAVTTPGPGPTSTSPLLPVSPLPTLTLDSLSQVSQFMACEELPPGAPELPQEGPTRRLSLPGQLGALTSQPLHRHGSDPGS

SMILES	hERG current change (%, negative = inhibition) at 1uM
Cc1ccc(-c2csc(N)n2)s1	7.86%
CCOC(=O)[C@H]1[C@H]2COc3ccc(Br)cc3[C@H]2N2C(=O)CNC(=O)[C@@]12C	9.77%
Cn1c(Cl)cnc1C(O)c1ccccc1 (stereo not drawn)	2.79%
COc1ccc2oc(=O)c(-c3csc(Nc4cccc(O)c4)n3)cc2c1	20.5%
O=C(CSc1nc2ccccc2[nH]1)N/N=C/C=C/c1ccccc1[N+](=O)[O-]	3.64%
O=C(CCc1nc2ccccc2c(=O)[nH]1)N1CCN(S(=O)(=O)c2ccc(F)cc2)CC1	-3.14%
Cc1c(S(=O)(=O)NCCc2ccccc2)c(=O)n(C)c(=O)n1C	11.8%
Nc1ccc2nc(-c3cccc(-c4nc5ccc(N)cc5[nH]4)c3)[nH]c2c1	2.17%
CCOC(=O)Cc1csc(NC(=S)NC(=O)c2ccc(C)cc2)n1	15.8%
CCOCCCNC(=O)CCC(=O)NNc1nc2ccccc2c2nc(C)nn12	9.53%
N#C/C(=C(/O)COC(=O)COc1ccc(Cl)cc1)c1nc2ccccc2[nH]1	13.3%
Cn1nnnc1SCc1c(F)cccc1F	8.28%
CC(=O)O.c1ccc2c(c1)NC1(CCCCCC1)n1c-2nc2ccccc21	9.45%
Cn1c(CC(=O)Nc2cccc(Cl)c2Cl)nnc1SCC(=O)NC1=NCCS1	10.6%
O=C(CSc1ccc(-c2ccc(F)cc2)nn1)N1CCN(c2ccccc2)CC1	-2.59%
COc1ccc(-c2noc(CN3CCN(c4ccccc4)CC3)n2)cc1	11.3%
COc1cc(C(=O)N(CCc2ccccc2)C2CC3CCC(C2)N3C)cc(OC)c1OC.Cl.O (stereo not drawn)	-1.79%
CCN(CC)C(=O)CN(C#N)c1nc(C)cc(C)n1	16%
COc1ccc(-c2[nH]ncc2CN2CCC(OCc3ccccn3)CC2)c(F)c1	2.13%
CN1CCN(CC(=O)Nc2ccc(OC(F)(F)F)cc2)CC1.Cl	-31.3%
COc1ccccc1NC(=O)CSc1nc(=O)n(CCN(C)C)c2c1CCCC2	-2.02%
CCn1cc(/C=C(\NC(=O)c2ccccc2F)C(=O)N2CCOCC2)c2ccccc21	13.2%

SMILES	hERG current change (%, negative = inhibition) at 1uM
Cc1cc(C)nc(NS(=O)(=O)c2ccc(NC(=O)c3cc(=O)c4ccccc4o3)cc2)n1	13.4%
COc1ccc(/C=C2\SC(=S)N(CCC(=O)Nc3ccccc3C(=O)O)C2=O)cc1	8.31%
Nc1c(C(=O)C2CC2)sc2nc(-c3ccccc3)cc(C(F)(F)F)c12	11%
Nc1c(C(=O)N2CCCC2)sc2nc(-c3ccccc3)ccc12	-17.8%
CCOC(=O)C1CCN(C(=O)COC(=O)C2CCN(S(=O)(=O)c3ccc4c(c3)OCCO4)CC2)CC1	14.6%
C=CCSc1nnc(-c2cc(C(C)(C)C)nn2Cc2ccc(F)cc2)n1C	9.98%
CN1CC(c2ccccc2)C2(COc3ccccc3C2=O)C12C(=O)Nc1ccccc12 (stereo not drawn)	0.344%
CCSc1nnc(NC(=O)CSc2nc3c(c(=O)n2-c2ccccc2OC)SCC3)s1	-16.9%
Cc1cc(-n2c(C)cc(C(=O)COc3ccc([N+](=O)[O-])cc3)c2C)no1	-5.8%
CCCCCCSc1cccc(-c2nc3cc(C)ccn3c2NC2CCCCC2)c1.O=C(O)C(F)(F)F	8.06%
CN(C(=O)c1ccnn1C)C1CCCN(Cc2ccccc2F)C1 (stereo not drawn)	24.1%
CC(C)CCN1CCN(Cc2nc(-c3ccccc3)cs2)CC1CCO (stereo not drawn)	-30.7%
O=C(COc1coc(CN2CCc3ccccc3C2)cc1=O)Nc1ccc(F)cc1	10.4%
COc1ccc(/C(O)=C(\C#N)c2nc3ccccc3n2C)cc1OC	4.68%
CCOc1ccc(NC(=O)CCS(=O)(=O)c2ccc3c(c2)CCCN3C(=O)CC)cc1	5.42%
Cn1c2ccccc2c2cc(C(=O)N3CCN(CCO)CC3)sc21	12.5%
Cc1cccc(OCCCN2CCOCC2)c1	13.5%
COC(=O)c1ccc(C(=O)OCCCc2nc3ccc(N)cc3[nH]2)cc1	-1.34%
Cc1cc(C)nc(Oc2ccc(Br)cc2Br)n1	22%
Cc1nc2ccc(NC(=O)NCCO)cc2s1	9.82%
O=C(CSC1=NCCS1)NC(NC(=O)CSC1=NCCS1)c1ccccc1	16.7%
COc1ccc(OC)c(C(=O)NC(CC(N)=O)c2ccc(N3CCN(c4ccc(F)cc4)CC3)c([N+](=O)[O-])c2)c1 (stereo not drawn)	15.5%

SMILES	hERG current change (%, negative = inhibition) at 1uM
O=C(CN1CCOCC1)Nc1ccccc1Sc1ccc(Cl)cc1	15.2%
COc1ccc(CCN(C)C(=O)CCCN2C(=O)c3cccc4cccc(c34)C2=O)cc1OC	-1.27%
CCOC(=O)N1CCC(c2cc(=O)n3[nH]cc(C(=O)OC)c3n2)CC1	13.7%
CC1C(=O)N2CCCc3cc(NC(=O)COc4ccc(Cl)cc4)cc1c32 (stereo not drawn)	1.91%
COc1ccccc1CNc1ncccc1[N+](=O)[O-]	3.82%
O=C(NC1CCCCC1)c1cc(-c2ccc(F)cc2)on1	16.8%
O=C(Nc1nccs1)C1CCCN(S(=O)(=O)c2cccnc2)C1 (stereo not drawn)	12.6%
COc1ccc(N2CC(NC(=O)NCC(C)C)CC2=O)cc1 (stereo not drawn)	10.2%
Fc1ccc(CSc2nnc(-c3cnccn3)n2Cc2ccco2)cc1	-46.9%
Cc1ccc(NC(=S)NNC(=S)Nc2cccc(C(F)(F)F)c2)cc1	15.4%
CC[N+]1(CC(O)COC2CC(C)CC(C)(C)C2)CCOCC1.[I-] (stereo not drawn)	10.6%
Cn1c(=O)c2c(nc(CN3CCN(c4ccc(F)cc4)CC3)n2CCN2CCOCC2)n(C)c1=O	-9.35%
CCOc1ccc(N/C(SCc2cccc([N+](=O)[O-])c2)=C(/C#N)C(N)=O)cc1	5.83%
CCOC(=O)N1CCN(c2ccccc2OC)CC1	13%
COc1cccc(C(=O)NCCN2CCN(c3ccc(Cl)cc3)CC2)c1	0.313%
O=C(C1CC(=O)N(c2ccccc2)C1)N1CCN(C2=NS(=O)(=O)c3ccccc32)CC1 (stereo not drawn)	15.7%
CN(C)S(=O)(=O)c1ccc(N2CCCC2)c(C(=O)Nc2nc(-c3ccc(F)cc3)cs2)c1	11.9%
N#Cc1ccc(OCC(O)CN2CCN(c3ncc(C(F)(F)F)cc3Cl)CC2)cc1 (stereo not drawn)	-81.4%
CC(C)NC(=S)Nc1c(N)[nH]c(=O)[nH]c1=O	15.3%
CCCCN(C)C(=O)Cc1c(OC)ccc2cc(Br)ccc12	-2.37%
COc1ccc(C(=O)NCCS(=O)(=O)NCc2cccnc2)cc1	8.15%
Cc1noc2ncnc(Oc3ccccc3)c12	5.41%

SMILES	hERG current change (%, negative = inhibition) at 1uM
Cc1ccc(Cn2nnc3c(=O)[nH]c(C4CCCN(C(=O)Nc5ccc(F)cc5F)C4)nc32)cc1 (stereo not drawn)	13.8%
Cc1[nH]c2ccccc2c1C(=O)C(C)OC(=O)c1ccc(Cl)nc1 (stereo not drawn)	8.91%
CCN(CC(=O)NCc1cccs1)c1ccc(S(=O)(=O)N2CCCC2)cn1	-9.89%
CN(C)S(=O)(=O)N1CCN(C(=O)c2ccccc2)CC1	8.58%
CCOC(=O)c1c(O)c(O)c(C(=O)OCC)n1-c1ccccc1	14.6%
C=CCn1cnc2c(nnn2-c2cc(C)cc(C)c2)c1=O	5.82%
CCOc1ccc(C2/C(=C(\O)c3ccc4c(c3)OCCO4)C(=O)C(=O)N2CCN2CCOCC2)cc1OCC (stereo not drawn)	6.82%
Cc1cc(S(=O)(=O)Nc2ccc(C(=O)NCc3cccnc3)cc2)ccc1F	5.88%
CC(C(=O)NCC1CCCCC1)N1CCN(S(=O)(=O)c2ccccc2F)CC1 (stereo not drawn)	10.2%
CCN(CC)c1ccc2c(c1)CCCN2.Cl	10.4%
O=C(Nc1ccc(Cc2ccncc2)cc1)C1CCC(N2C(=O)C3CCCCC3C2=O)CC1 (stereo not drawn)	4.62%
CC1(C)CC(=O)C=C(Nc2ccc(C(=O)O)c(O)c2)C1	15.3%
C(=C\c1ccccc1)/C=N/Nc1ccc2nncn2n1	-3.59%
CN1CCN(c2ccc([N+](=O)[O-])c(Sc3nc4ccccc4[nH]3)c2)CC1	6.54%
O=C(NCc1ccccc1)C1CCC(=O)N(CCN2CCOCC2)C1 (stereo not drawn)	15.8%
Cc1cccc(NS(=O)(=O)c2cccc(C(=O)N3CCC3)c2)c1	13.6%
O=C(COc1ccccc1)N1CCN=C1SCc1cccc(F)c1	8.03%
CC(C)Cc1nc2sc3c(=O)[nH]cnc3c2c2c1CCC2	7.77%
Clc1ccc(Cn2nc(-c3ccccc3)nc2-c2ccccc2)cc1	-2.71%
O=C(c1ccccc1)C1CCN(CC(=O)N2CCN(c3ccccc3)CC2)CC1	10.9%
CN(NC1CC(=O)N(c2ccccc2)C1=O)c1ccccc1 (stereo not drawn)	7.11%
